Results taken from the supplement of paper PMC7826260.
This is one part of the list. One pool of 16,384 single-stranded DNAs met each Rep nickase domain in vitro (3 µM enzyme, 1 h, 37 °C); shown is the middle of each 90-letter strand. Uncut reads are compared with the no-enzyme pool on a log2 scale; uncut sequences lie near 0, cut ones below; no hit call is given. Because reads are shares of a total, they shift together; where an enzyme cuts many sequences, the uncut ones exceed 0.

How the values were obtained:
Experiment in all cases: uncleaved DNA left, log2 of reads against the no-enzyme library (log2 ratio); higher = less cleavage (more negative = more Rep cleavage of the k-mer); sequences stand for … in CTCGTCCG…ACCGGAGA
[1] = system: T1, Rep nickase domain of Muscovy duck circovirus
T1 sequence (residues 1-111, tag not shown): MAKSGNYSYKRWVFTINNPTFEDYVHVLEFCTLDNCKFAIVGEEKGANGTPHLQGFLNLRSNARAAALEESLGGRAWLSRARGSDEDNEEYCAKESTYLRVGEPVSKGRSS
Procedure: (§1)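 A pool of 90-nt single-stranded DNAs with seven random bases just before the constant AC of the nick site (name = the seven bases) was cut by 3 µM recombinant His6-SUMO-tagged Rep nickase domain (300 nM DNA, 50 mM HEPES pH 8.0, 50 mM NaCl, 1 mM MnCl2, 1 h, 37 °C, three replicates). Uncut DNA was amplified and sequenced.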

[2] = system: T2, Rep nickase domain of banana bunchy top virus
T2 sequence (residues 1-94, tag not shown): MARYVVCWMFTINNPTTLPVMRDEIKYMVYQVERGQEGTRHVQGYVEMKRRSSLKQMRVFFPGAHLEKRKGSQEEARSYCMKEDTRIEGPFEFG
Procedure: as §1

[3] = system: T3, Rep nickase domain of cabbage leaf curl virus
T3 sequence (residues 1-116, tag not shown): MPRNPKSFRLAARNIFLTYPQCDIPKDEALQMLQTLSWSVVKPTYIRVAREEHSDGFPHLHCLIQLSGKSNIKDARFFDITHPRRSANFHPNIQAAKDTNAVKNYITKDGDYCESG
Procedure: as §1

[4] = system: T4, Rep nickase domain of chickpea chlorotic dwarf virus
T4 sequence (residues 1-124, tag not shown): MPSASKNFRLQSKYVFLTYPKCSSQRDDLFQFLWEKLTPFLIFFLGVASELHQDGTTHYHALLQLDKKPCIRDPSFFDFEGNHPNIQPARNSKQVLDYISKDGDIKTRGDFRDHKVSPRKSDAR
Procedure: as §1

[5] = system: T5, Rep nickase domain of faba bean necrotic yellows virus
T5 sequence (residues 1-98, tag not shown): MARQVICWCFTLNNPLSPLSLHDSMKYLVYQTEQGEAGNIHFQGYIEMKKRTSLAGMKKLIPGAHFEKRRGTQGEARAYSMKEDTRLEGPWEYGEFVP
Procedure: as §1

[6] = system: T6, Rep nickase domain of maize striate mosaic virus
T6 sequence (residues 1-117, tag not shown): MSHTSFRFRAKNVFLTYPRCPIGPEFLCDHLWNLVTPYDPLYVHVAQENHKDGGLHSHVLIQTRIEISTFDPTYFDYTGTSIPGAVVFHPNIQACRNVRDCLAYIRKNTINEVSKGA
Procedure: as §1

[7] = system: T7, Rep nickase domain of porcine circovirus 2
T7 sequence (residues 2-116, tag not shown): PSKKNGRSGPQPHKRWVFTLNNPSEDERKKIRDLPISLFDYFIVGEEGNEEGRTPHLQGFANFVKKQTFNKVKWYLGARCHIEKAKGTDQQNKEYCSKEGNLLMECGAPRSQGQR
Procedure: as §1

[8] = system: T8, Rep nickase domain of tomato yellow leaf curl virus
T8 sequence (residues 1-136, tag not shown): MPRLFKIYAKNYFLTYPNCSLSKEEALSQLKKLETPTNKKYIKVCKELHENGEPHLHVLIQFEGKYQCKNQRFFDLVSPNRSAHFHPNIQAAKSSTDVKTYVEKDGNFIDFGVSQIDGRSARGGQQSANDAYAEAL
Procedure: as §1

[9] = system: T9, Rep nickase domain of wheat dwarf virus
T9 sequence (residues 1-137, tag not shown): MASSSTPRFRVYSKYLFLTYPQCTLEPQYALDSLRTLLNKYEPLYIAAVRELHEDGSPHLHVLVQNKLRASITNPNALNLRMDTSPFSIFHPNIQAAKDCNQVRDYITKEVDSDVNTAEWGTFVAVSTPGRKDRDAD
Procedure: as §1

| Sequence | uncleaved DNA left (log2) [1] | uncleaved DNA left (log2) [2] | uncleaved DNA left (log2) [3] | uncleaved DNA left (log2) [4] | uncleaved DNA left (log2) [5] | uncleaved DNA left (log2) [6] | uncleaved DNA left (log2) [7] | uncleaved DNA left (log2) [8] | uncleaved DNA left (log2) [9] |
| --- | --- | --- | --- | --- | --- | --- | --- | --- | --- |
| CGACACA | -0.00573 | -0.0158 | -0.0062 | 0.331 | -0.0233 | 1.18 | 0.0538 | -0.0609 | 0.127 |
| GGGGCCA | -0.0441 | 0.0556 | 0.853 | 1.88 | -0.104 | 2.21 | 0.118 | 0.00212 | 0.103 |
| GAAATGG | 0.102 | 0.0969 | 0.294 | 0.538 | 0.106 | -0.00609 | 0.191 | 0.0268 | 0.174 |
| TCACTGC | -0.0494 | -0.0617 | -0.418 | -0.546 | -0.073 | -0.892 | 0.0148 | -0.0694 | -0.137 |
| GACAGCG | 0.156 | 0.0933 | -0.554 | 0.708 | 0.0577 | -0.249 | 0.101 | 0.0136 | -0.0291 |
| CCCCTTC | -0.228 | -0.159 | -0.152 | -0.594 | -0.181 | -0.627 | -0.0341 | -0.32 | -0.121 |
| TTGGAAC | 0.0537 | 0.103 | 0.354 | 0.391 | 0.0263 | 0.876 | 0.0664 | -0.0359 | 0.0345 |
| TCTGTAA | 0.0633 | 0.0198 | -0.0216 | -0.48 | -0.00938 | -0.179 | -0.146 | 0.01 | 0.064 |
| CTTTGGA | 0.045 | -0.0223 | -0.268 | -0.736 | -0.0419 | -0.965 | 0.0123 | -0.0741 | -0.0498 |
| GTCTGTA | 0.108 | -0.00198 | 0.216 | 0.776 | 0.00253 | 1.51 | 0.0415 | 0.0507 | -0.0837 |
| GATCGGG | 0.113 | 0.0763 | 0.251 | 0.397 | 0.137 | -0.049 | 0.195 | 0.0781 | 0.11 |
| GCGGTTC | -0.013 | -0.0432 | 0.479 | 1.11 | -0.0984 | 1.65 | 0.159 | 0.123 | 0.124 |
| ATATAAG | 0.127 | 0.105 | -0.683 | 0.131 | 0.134 | -0.983 | 0.18 | 0.122 | -0.0299 |
| TTTATTC | 0.0118 | -0.0104 | 0.188 | -0.0346 | 0.0691 | -0.743 | 0.0303 | -0.0106 | 0.015 |
| GCCGCCG | -0.0808 | -0.118 | -0.688 | -0.359 | -0.125 | -0.76 | 0.0904 | -0.0707 | -0.208 |
| AGCCTCT | 0.161 | 0.0483 | 0.0272 | -0.875 | -0.00276 | 0.556 | -0.268 | 0.0418 | 0.0257 |
| AGGTTTT | -1.57 | -0.104 | 0.139 | -0.922 | -0.218 | 0.763 | -3.45 | 0.0105 | 0.0147 |
| GGCGGGT | 0.121 | -0.0037 | 0.291 | 0.746 | -0.0278 | 1.49 | 0.113 | -0.0621 | -0.0172 |
| TGCGATC | -0.061 | -0.131 | -0.172 | -0.0999 | -0.142 | -0.588 | -0.0662 | -0.0899 | -0.15 |
| ATTACAC | 0.048 | 0.00648 | -0.0809 | -1.88 | -0.0822 | -0.756 | -0.00599 | -0.0444 | 0.00615 |
| GCGGCAA | 0.0473 | 0.0536 | 0.657 | 1.55 | -0.0709 | 1.93 | 0.164 | 0.0771 | 0.0838 |
| AACTTGC | -0.0671 | -0.0669 | -0.863 | -0.336 | -0.0447 | -1.1 | -0.000745 | 0.0319 | -0.104 |
| GGTCTCT | 0.0689 | 0.0312 | 0.359 | 0.595 | 0.0221 | 1.55 | 0.0732 | 0.103 | -0.00833 |
| GGGTACA | 0.0203 | 0.189 | 0.841 | 2.03 | 0.144 | 2.29 | 0.213 | -0.0322 | 0.157 |
| CTTGGCG | 0.203 | 0.0939 | -0.508 | 0.682 | 0.0256 | -0.519 | 0.218 | 0.116 | 0.0323 |
| CAAGTGG | 0.128 | -0.042 | -0.0557 | 0.373 | 0.0616 | -0.478 | 0.119 | -0.0433 | -0.0464 |
| GTCTGGG | 0.0435 | -0.00988 | 0.161 | 0.517 | -0.0953 | 0.559 | 0.0086 | -0.02 | -0.108 |
| CGTTAGC | 0.00783 | 0.00892 | 0.152 | 0.608 | 0.0581 | 0.0889 | 0.0458 | -0.0993 | 0.0694 |
| CTCGGGG | 0.147 | 0.0759 | 0.537 | 0.952 | -0.000708 | 1.2 | 0.233 | -0.0418 | -0.027 |
| GGTTGTC | 0.0233 | 0.0218 | 0.437 | 0.957 | -0.0208 | 1.29 | 0.133 | -0.00384 | -0.0247 |
